Laboratory results published in PubChem BioAssay (Tox21).
The inconclusive results got no clear call from the source; some entries with a clear call stand among them for comparison. Potencies of inconclusive entries are doubtful fits and often do not repeat. Active and inactive are the calls of the source. Calls follow the shape of the dose curve; as a rule, active = well fitted activation curve with a large enough effect in the repeat runs; inconclusive = weak or mixed curves; inactive = flat fitted curve, though single readings scatter.

Each molecule was assayed against Androgen receptor (Homo sapiens) (UniProt P10275) (assay: qHTS assay to identify small molecule agonists of the androgen receptor (AR) signaling pathway using the MDA cell line (AID 743040; also: nearly all actives have a fitted effect of over 20% in size)). Settings: MDA-kb2 AR-luc cells, MMTV luciferase, 16 h; activity change: at 95 µM (top of the series), stronger effect = higher value.
Sequence of UniProt P10275 (P10275 whole entry, looked up): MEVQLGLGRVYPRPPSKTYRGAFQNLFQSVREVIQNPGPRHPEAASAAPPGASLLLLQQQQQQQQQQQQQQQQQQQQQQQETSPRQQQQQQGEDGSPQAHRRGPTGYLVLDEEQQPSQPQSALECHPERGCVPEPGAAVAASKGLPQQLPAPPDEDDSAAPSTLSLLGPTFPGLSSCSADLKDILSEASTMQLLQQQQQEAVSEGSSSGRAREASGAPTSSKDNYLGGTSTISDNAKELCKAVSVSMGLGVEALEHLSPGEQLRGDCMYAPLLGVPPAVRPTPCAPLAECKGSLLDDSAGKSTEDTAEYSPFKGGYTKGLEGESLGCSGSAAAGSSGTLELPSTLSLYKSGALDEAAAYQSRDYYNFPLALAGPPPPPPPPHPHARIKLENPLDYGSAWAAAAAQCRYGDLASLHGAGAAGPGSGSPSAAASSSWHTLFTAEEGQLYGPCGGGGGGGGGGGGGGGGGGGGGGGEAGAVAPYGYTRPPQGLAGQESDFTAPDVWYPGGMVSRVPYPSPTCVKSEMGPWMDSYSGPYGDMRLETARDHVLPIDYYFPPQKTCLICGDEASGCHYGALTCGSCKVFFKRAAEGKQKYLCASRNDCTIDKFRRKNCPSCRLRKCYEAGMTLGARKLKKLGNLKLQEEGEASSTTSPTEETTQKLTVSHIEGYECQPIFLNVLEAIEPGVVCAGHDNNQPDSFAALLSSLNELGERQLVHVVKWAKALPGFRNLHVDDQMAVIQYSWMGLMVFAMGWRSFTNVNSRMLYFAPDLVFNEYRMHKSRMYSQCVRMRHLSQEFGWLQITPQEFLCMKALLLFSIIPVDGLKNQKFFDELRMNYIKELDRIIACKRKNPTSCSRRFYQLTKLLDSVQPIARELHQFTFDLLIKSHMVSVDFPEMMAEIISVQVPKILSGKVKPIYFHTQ
Text: National Center for Advancing Translational Sciences [NCATS]
NIH Chemical Genomics Center [NCGC]
U.S. Environmental Protection Agency [EPA]
National Institutes of Environmental Health Sciences [NIEHS]
National Toxicology Program [NTP]
U.S. Food and Drug Administration [FDA]
Androgen receptor (AR), a nuclear hormone receptor, plays a critical role in AR-dependent prostate cancer and other androgen related diseases. Endocrine disrupting chemicals (EDCs) and their interactions with steroid hormone receptors like AR may cause disruption of normal endocrine function as well as interfere with metabolic homeostasis, reproduction, developmental and behavioral functions. To identify the compounds that activate AR signaling, MDA-kb2 AR-luc cell line (from ATCC, deposited by Wilson et al.) was used to screen the Tox21 10K compound library. MDA-kb2 AR-luc cell line is human breast carcinoma cell line that was stably transfected with a luciferase reporter gene under control of the MMTV promoter containing response elements for both androgen receptor (AR) and glucocorticoid receptor (GR).
Tox21 Assay Protocol Summary:
MDA-kb2 AR-luc cells were dispensed at 3,000 cells/5 uL/well of culture medium into white wall/solid-bottom 1536-well plates using a Multidrop Combi (ThermoFisher Scientific, Waltham, MA) dispenser. After the assay plates were incubated at 37C and 0% CO2 for 5 h, 23 nL of compounds dissolved in DMSO, positive controls or DMSO only was transferred to the assay plate by a Pintool station (Kalypsys, San Diego, CA). The plates were incubated at 37C and 0% CO2 for 16 h. Then 4 uL of ONE-Glo reagent (Promega, Madison, WI) was added to each plate using a Bioraptr Flying Reagent Dispenser (FRD) workstation (Beckman Coulter, Indianapolis, IN, USA) and luminescence was quantified on a ViewLux (PerkinElmer, Shelton, CT) plate reader after 30 min incubation at room temperature.
% is scaled to controls: 0 for no effect and ±100 for the full control effect; potency is read from the fitted curve at half-maximal effect; tags tell the direction and shape of the fitted curve.

Compound	activity change	Potency
Cc1nc(N)nc(N)n1	inconclusive: 6.02% [activator]	
C[C@]12CC[C@H](OS(=O)(=O)O)CC1=CC[C@@H]1[C@@H]2CC[C@]2(C)C(=O)CC[C@@H]12		active: 21100 nM
CO[C@H]1[C@@H](O)C[C@H](O[C@H]2[C@@H](O)C[C@H](O[C@H]3[C@@H](O)C[C@H](O[C@H]4CC[C@@]5(C)[C@H](CC[C@@H]6[C@@H]5C[C@@H](O)[C@]5(C)[C@@H](C7=CC(=O)OC7)CC[C@]65O)C4)O[C@@H]3C)O[C@@H]2C)O[C@@H]1C		inconclusive: 188 nM [activator, full curve, poor fit]
CC(=O)O[C@H]1C[C@H](O[C@H]2[C@@H](O)C[C@H](O[C@H]3[C@@H](O)C[C@H](OC4CC[C@@]5(C)[C@H](CC[C@@H]6[C@@H]5CC[C@]5(C)[C@@H](C7=CC(=O)OC7)CC[C@]65O)C4)O[C@@H]3C)O[C@@H]2C)O[C@H](C)[C@H]1O[C@@H]1O[C@H](CO)[C@@H](O)[C@H](O)[C@H]1O (some centres not stated)		inconclusive: 211 nM [activator, full curve, poor fit]
CNC(C)CC1CCCCC1 (configuration not stated)	inactive: 1.43% [at 70.3 µM, stronger effect = higher value]	
C[C@]12CC[C@H](O)C[C@H]1CC[C@@H]1[C@@H]2CC[C@]2(C)[C@@H](c3ccc(=O)oc3)C[C@H]3O[C@]132		inconclusive: 2660 nM [activator, full curve, poor fit]
CC(=O)O[C@H]1C[C@H](O[C@H]2[C@@H](O)C[C@H](O[C@H]3[C@@H](O)C[C@H](OC4CC[C@@]5(C)C(CC[C@@H]6[C@@H]5CC[C@]5(C)[C@@H](C7=CC(=O)OC7)[C@@H](O)C[C@]65O)C4)O[C@@H]3C)O[C@@H]2C)O[C@H](C)[C@H]1O[C@@H]1O[C@H](CO)[C@@H](O)[C@H](O)[C@H]1O (some centres not stated)		inconclusive: 1330 nM [activator, full curve, poor fit]
C[C@H](N)C(=O)c1ccccc1		inactive
CC(=O)O[C@H]1CC[C@H]2[C@@H]3CCC4=CC(=O)CCC4=C3C=C[C@]12C		active: 1.7 nM
CC(=O)O[C@H]1C[C@H](O[C@H]2[C@@H](O)C[C@H](O[C@H]3[C@@H](O)C[C@H](O[C@H]4CC[C@@]5(C)[C@H](CC[C@@H]6[C@@H]5C[C@@H](O)[C@]5(C)[C@@H](C7=CC(=O)OC7)CC[C@]65O)C4)O[C@@H]3C)O[C@@H]2C)O[C@H](C)[C@H]1O[C@@H]1O[C@H](CO)[C@@H](O)[C@H](O)[C@H]1O		inconclusive: 150 nM [activator, full curve, poor fit]
CC(C)CCC(=O)O[C@H]1CC[C@H]2[C@@H]3CCC4=CC(=O)CC[C@]4(C)[C@H]3CC[C@]12C		active: 4.2 nM
Oc1ccc2c3c1O[C@H]1[C@@H](O)CC[C@@]4(O)[C@@H](C2)N(CC2CCC2)CC[C@]314		inconclusive: 29800 nM [activator, partial curve, poor fit]
